Measured values reported in patent US20250084180A1 (MIE UNIVERSITY, published 2025).

T1: CD19 (human, UniProt P15391 20-556)
T1 sequence (looked up): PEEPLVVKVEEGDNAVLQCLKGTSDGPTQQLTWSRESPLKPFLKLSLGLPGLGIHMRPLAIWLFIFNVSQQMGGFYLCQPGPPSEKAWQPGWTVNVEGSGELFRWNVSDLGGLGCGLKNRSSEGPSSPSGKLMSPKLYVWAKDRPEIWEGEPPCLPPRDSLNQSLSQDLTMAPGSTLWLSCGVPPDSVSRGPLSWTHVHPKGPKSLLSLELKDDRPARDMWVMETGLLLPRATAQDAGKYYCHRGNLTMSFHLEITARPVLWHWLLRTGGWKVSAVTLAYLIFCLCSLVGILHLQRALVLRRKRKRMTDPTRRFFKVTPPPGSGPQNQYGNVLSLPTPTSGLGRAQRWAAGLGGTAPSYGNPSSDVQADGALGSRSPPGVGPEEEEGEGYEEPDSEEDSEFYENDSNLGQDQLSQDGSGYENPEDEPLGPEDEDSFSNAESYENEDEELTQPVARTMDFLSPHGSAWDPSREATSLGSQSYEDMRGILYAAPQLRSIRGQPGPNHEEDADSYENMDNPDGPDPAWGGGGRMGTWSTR

B1: MAGE-A4-zG (other)
chain: QVQLQVQLVQSGAEVKKPGSSVKVSCKASGGTFSSYAISWVRQAPGQGLEWMGGIIPIFGTANYAQKFQGRVTITADKSTSTAYMELSSLRSEDTAVYYCARSPRRAYHDAFDIWGQGTMVTVSSGGGGSGGGGSGGGGSSYELTQPPSMSVAPGKTASITCGGDHIGSKSVHWYQQKPGQAPVLVVYDDSDRPSGIPERFSGSNSGNTATLTISGTQAMDEADYYCLAWDSSTAIFGGGTQLTVLVGQPKANPTVTLFPPSSEELQANKATLVCLISDFYPGAVTVAWKADGSPVKAGVETTKPSKQSNNKYAASSYLSLTPEQWKSHRSYSCQVTHEGSTVEKTVAPTECSARQTRFWVLVVVGGVLACYSLLVTVAFIIFWVRL[not shown - about 120 residues]RSQCMWPRETQLLLEVPPSTEDARSCQFPEEERGERSAEEKGRLGDLWV
B2: MAGE-A4-zG-Em1 (other)
chain: QVQLQVQLVQSGAEVKKPGSSVKVSCKASGGTFSSYAISWVRQAPGQGLEWMGGIIPIFGTANYAQKFQGRVTITADKSTSTAYMELSSLRSEDTAVYYCARSPRRAYHDAFDIWGQGTMVTVSSGGGGSGGGGSGGGGSSYELTQPPSMSVAPGKTASITCGGDHIGSKSVHWYQQKPGQAPVLVVYDDSDRPSGIPERFEGENEGNEATLTISGTQAMDEADYYCLAWDSSTAIFGGGTQLTVLVGQPKANPTVTLFPPSSEELQANKATLVCLISDFYPGAVTVAWKADGSPVKAGVETTKPSKQSNNKYAASSYLSLTPEQWKSHRSYSCQVTHEGSTVEKTVAPTECSARQTRFWVLVVVGGVLACYSLLVTVAFIIFWVRL[not shown - about 120 residues]RSQCMWPRETQLLLEVPPSTEDARSCQFPEEERGERSAEEKGRLGDLWV
B3: MAGE-A4-zG-Em2 (other)
chain: QVQLQVQLVQSGAEVKKPGSSVKVSCKASGGTFSSYAISWVRQAPGQGLEWMGGIIPIFGTANYAQKFQGRVTITADKSTSTAYMELSSLRSEDTAVYYCARSPRRAYHDAFDIWGQGTMVTVSSGGGGSGGGGSGGGGSSYELTQPPSMSVAPGKTASITCGGDHIGSKSVHWYQQKPGQAPVLVVYDDSDRPSGIPERFEGENEGNTAELTISGTQAMDEADYYCLAWDSSTAIFGGGTQLTVLVGQPKANPTVTLFPPSSEELQANKATLVCLISDFYPGAVTVAWKADGSPVKAGVETTKPSKQSNNKYAASSYLSLTPEQWKSHRSYSCQVTHEGSTVEKTVAPTECSARQTRFWVLVVVGGVLACYSLLVTVAFIIFWVRL[not shown - about 120 residues]RSQCMWPRETQLLLEVPPSTEDARSCQFPEEERGERSAEEKGRLGDLWV
B4: MAGE-A4-zG-Em3 (other)
chain: QVQLQVQLVQSGAEVKKPGSSVKVSCKASGGTFSSYAISWVRQAPGQGLEWMGGIIPIFGTANYAQKFQGRVTITADKSTSTAYMELSSLRSEDTAVYYCARSPRRAYHDAFDIWGQGTMVTVSSGGGGSGGGGSGGGGSSYELTQPPSMSVAPGKTASITCGGDHIGSKSVHWYQQKPGQAPVLVVYDDSDRPSGIPERFSGENEGNEAELTISGTQAMDEADYYCLAWDSSTAIFGGGTQLTVLVGQPKANPTVTLFPPSSEELQANKATLVCLISDFYPGAVTVAWKADGSPVKAGVETTKPSKQSNNKYAASSYLSLTPEQWKSHRSYSCQVTHEGSTVEKTVAPTECSARQTRFWVLVVVGGVLACYSLLVTVAFIIFWVRL[not shown - about 120 residues]RSQCMWPRETQLLLEVPPSTEDARSCQFPEEERGERSAEEKGRLGDLWV
B5: MAGE-A4-zG-Em4 (other)
chain: QVQLQVQLVQSGAEVKKPGSSVKVSCKASGGTFSSYAISWVRQAPGQGLEWMGGIIPIFGTANYAQKFQGRVTITADKSTSTAYMELSSLRSEDTAVYYCARSPRRAYHDAFDIWGQGTMVTVSSGGGGSGGGGSGGGGSSYELTQPPSMSVAPGKTASITCGGDHIGSKSVHWYQQKPGQAPVLVVYDDSDRPSGIPERFEGSNSGNEAELTISGTQAMDEADYYCLAWDSSTAIFGGGTQLTVLVGQPKANPTVTLFPPSSEELQANKATLVCLISDFYPGAVTVAWKADGSPVKAGVETTKPSKQSNNKYAASSYLSLTPEQWKSHRSYSCQVTHEGSTVEKTVAPTECSARQTRFWVLVVVGGVLACYSLLVTVAFIIFWVRL[not shown - about 120 residues]RSQCMWPRETQLLLEVPPSTEDARSCQFPEEERGERSAEEKGRLGDLWV
B6: MAGE-A4-zG-Dm5 (other)
chain: QVQLQVQLVQSGAEVKKPGSSVKVSCKASGGTFSSYAISWVRQAPGQGLEWMGGIIPIFGTANYAQKFQGRVTITADKSTSTAYMELSSLRSEDTAVYYCARSPRRAYHDAFDIWGQGTMVTVSSGGGGSGGGGSGGGGSSYELTQPPSMSVAPGKTASITCGGDHIGSKSVHWYQQKPGQAPVLVVYDDSDRPSGIPDRFSGSNSGNTATLDIDGTQAMDEADYYCLAWDSSTAIFGGGTQLTVLVGQPKANPTVTLFPPSSEELQANKATLVCLISDFYPGAVTVAWKADGSPVKAGVETTKPSKQSNNKYAASSYLSLTPEQWKSHRSYSCQVTHEGSTVEKTVAPTECSARQTRFWVLVVVGGVLACYSLLVTVAFIIFWVRL[not shown - about 120 residues]RSQCMWPRETQLLLEVPPSTEDARSCQFPEEERGERSAEEKGRLGDLWV
B7: CD19-28z-Dm8 (other)
chain: DIQMTQTTSSLSASLGDRVTISCRASQDISKYLNWYQQKPDGTVKLLIYHTSRLHSGVPDRFDGDGSGTDYSLTISNLEQEDIATYFCQQGNTLPYTFGGGTKLEITGGGGSGGGGSGGGGSEVKLQESGPGLVAPSQSLSVTCTVSGVSLPDYGVSWIRQPPRKGLEWLGVIWGSETTYYNSALKSRLTIIKDNSKSQVFLKMNSLQTDDTAIYYCAKHYYYGGSYAMDYWGQGTSVTVSSIEVMYPPPYLDNEKSNGTIIHVKGKHLCPSPLFPGPSKPFWVLVVVGGVLACYSLLVTVAFIIFWVRSKRSRLLHSDYMNMTPRRPGPTRKHYQPYAPPRDFAAYRSL[not shown - about 120 residues]
B8: CD19-28z-Em9 (other)
chain: DIQMTQTTSSLSASLGDRVTISCRASQDISKYLNWYQQKPDGTVKLLIYHTSRLHSGVPSRFSGSGSGTEYELEISNLEQEDIATYFCQQGNTLPYTFGGGTKLEITGGGGSGGGGSGGGGSEVKLQESGPGLVAPSQSLSVTCTVSGVSLPDYGVSWIRQPPRKGLEWLGVIWGSETTYYNSALKSRLTIIKDNSKSQVFLKMNSLQTDDTAIYYCAKHYYYGGSYAMDYWGQGTSVTVSSIEVMYPPPYLDNEKSNGTIIHVKGKHLCPSPLFPGPSKPFWVLVVVGGVLACYSLLVTVAFIIFWVRSKRSRLLHSDYMNMTPRRPGPTRKHYQPYAPPRDFAAYRSL[not shown - about 120 residues]
B9: CD19-28z-Dm10 (other)
chain: DIQMTQTTSSLSASLGDRVTISCRASQDISKYLNWYQQKPDGTVKLLIYHTSRLHSGVPSRFDGDGSGTDYDLTISNLEQEDIATYFCQQGNTLPYTFGGGTKLEITGGGGSGGGGSGGGGSEVKLQESGPGLVAPSQSLSVTCTVSGVSLPDYGVSWIRQPPRKGLEWLGVIWGSETTYYNSALKSRLTIIKDNSKSQVFLKMNSLQTDDTAIYYCAKHYYYGGSYAMDYWGQGTSVTVSSIEVMYPPPYLDNEKSNGTIIHVKGKHLCPSPLFPGPSKPFWVLVVVGGVLACYSLLVTVAFIIFWVRSKRSRLLHSDYMNMTPRRPGPTRKHYQPYAPPRDFAAYRSL[not shown - about 120 residues]
B10: CD19-28z-Dm11 (other)
chain: DIQMTQTTSSLSASLGDRVTISCRASQDISKYLNWYQQKPDGTVKLLIYHTSRLHSGVPSRFDGSGDGTDYDLTISNLEQEDIATYFCQQGNTLPYTFGGGTKLEITGGGGSGGGGSGGGGSEVKLQESGPGLVAPSQSLSVTCTVSGVSLPDYGVSWIRQPPRKGLEWLGVIWGSETTYYNSALKSRLTIIKDNSKSQVFLKMNSLQTDDTAIYYCAKHYYYGGSYAMDYWGQGTSVTVSSIEVMYPPPYLDNEKSNGTIIHVKGKHLCPSPLFPGPSKPFWVLVVVGGVLACYSLLVTVAFIIFWVRSKRSRLLHSDYMNMTPRRPGPTRKHYQPYAPPRDFAAYRSL[not shown - about 120 residues]
B11: CD19-28z-Dm12 (other)
chain: DIQMTQTTSSLSASLGDRVTISCRASQDISKYLNWYQQKPDGTVKLLIYHTSRLHSGVPSRFDGDGDGTDYDLTISNLEQEDIATYFCQQGNTLPYTFGGGTKLEITGGGGSGGGGSGGGGSEVKLQESGPGLVAPSQSLSVTCTVSGVSLPDYGVSWIRQPPRKGLEWLGVIWGSETTYYNSALKSRLTIIKDNSKSQVFLKMNSLQTDDTAIYYCAKHYYYGGSYAMDYWGQGTSVTVSSIEVMYPPPYLDNEKSNGTIIHVKGKHLCPSPLFPGPSKPFWVLVVVGGVLACYSLLVTVAFIIFWVRSKRSRLLHSDYMNMTPRRPGPTRKHYQPYAPPRDFAAYRSL[not shown - about 120 residues]
B12: CD19-28z-Em13 (other)
chain: DIQMTQTTSSLSASLGDRVTISCRASQDISKYLNWYQQKPDGTVKLLIYHTSRLHSGVPSRFEGEGEGTEYELTISNLEQEDIATYFCQQGNTLPYTFGGGTKLEITGGGGSGGGGSGGGGSEVKLQESGPGLVAPSQSLSVTCTVSGVSLPDYGVSWIRQPPRKGLEWLGVIWGSETTYYNSALKSRLTIIKDNSKSQVFLKMNSLQTDDTAIYYCAKHYYYGGSYAMDYWGQGTSVTVSSIEVMYPPPYLDNEKSNGTIIHVKGKHLCPSPLFPGPSKPFWVLVVVGGVLACYSLLVTVAFIIFWVRSKRSRLLHSDYMNMTPRRPGPTRKHYQPYAPPRDFAAYRSL[not shown - about 120 residues]

Experiments:
Test in all cases: cell-based or functional assay
[1] = target: complex of a MAGE-A4 derived peptide and HLA-A2 (human)
[2] = target: complex of a MAGE-A4 derived peptide and HLA-A2 (human); remark: listed apart in the source
[3] = target: complex of a MAGE-A4 derived peptide and HLA-A2 (human); remark: listed apart in the source
[4] = target: complex of a MAGE-A4 derived peptide and HLA-A2 (human); remark: listed apart in the source
[5] = target: T1, CD19
[6] = target: T1, CD19; remark: listed apart in the source

Binder | Cell lysis (%), CAR-T cells on SK-MEL-37, Effecter:Target = 10:1 [1] | Ratio of Cell lysis to MAGE-A4-zG (1.00), SK-MEL-37, Effecter:Target = 10:1 [1] | Cell lysis (%), CAR-T cells on SK-MEL-37, Effecter:Target = 1:1 [2] | Ratio of Cell lysis to MAGE-A4-zG (1.00), SK-MEL-37, Effecter:Target = 1:1 [2] | Cell lysis (%), CAR-T cells on SK-MEL-37, Effecter:Target = 3:1 (Example 3) [3] | Ratio of Cell lysis to MAGE-A4-zG (1.00), SK-MEL-37, Effecter:Target = 3:1 (Example 3) [3] | Cell lysis (%), CAR-T cells on SK-MEL-37, Effecter:Target = 3:1 [4] | Ratio of Cell lysis to MAGE-A4-zG (1.00), SK-MEL-37, Effecter:Target = 3:1 [4] | Cell lysis (%), CAR-T cells on Nalm-6, Effecter:Target = 3:1 [5] | Ratio of Cell lysis to CD19-28z (1.00), Nalm-6, Effecter:Target = 3:1 [5] | Cell lysis (%), CAR-T cells on Nalm-6, Effecter:Target = 1:1 [6] | Ratio of Cell lysis to CD19-28z (1.00), Nalm-6, Effecter:Target = 1:1 [6]
B1 | 33% | 1 ratio | 18% | 1 ratio | 43% | 1 ratio | 13% | 1 ratio |  |  |  | 
B2 | 44% | 1.35 ratio |  |  |  |  | 33% | 2.54 ratio |  |  |  | 
B3 | 52% | 1.56 ratio |  |  |  |  | 30% | 2.31 ratio |  |  |  | 
B4 | 51% | 1.54 ratio |  |  |  |  | 24% | 1.85 ratio |  |  |  | 
B5 |  |  | 36% | 2 ratio | 98% | 2.28 ratio |  |  |  |  |  | 
B6 |  |  | 34% | 1.89 ratio | 84% | 1.95 ratio |  |  |  |  |  | 
B7 |  |  |  |  |  |  |  |  | 60% | 1.2 ratio | 26% | 1.24 ratio
B8 |  |  |  |  |  |  |  |  | 94% | 1.88 ratio | 39% | 1.86 ratio
B9 |  |  |  |  |  |  |  |  | 98% | 1.96 ratio | 50% | 2.38 ratio
B10 |  |  |  |  |  |  |  |  | 81% | 1.62 ratio | 49% | 2.33 ratio
B11 |  |  |  |  |  |  |  |  | 75% | 1.5 ratio | 47% | 2.24 ratio
B12 |  |  |  |  |  |  |  |  | 68% | 1.36 ratio | 32% | 1.52 ratio
